These are yes or no findings as the source states them, for the method shown. Some binding calls cover weakened binding; strength is not graded here.

Common to all, as to test: tandem affinity purification; TAP-tagged subunit purified from yeast lysate (IgG sepharose, TEV elution, calmodulin beads; buffer A 25 mM Tris pH 8.0, 100 mM NaCl), co-purified proteins on SDS-PAGE, silver staining; strains: wild type, elp3Δ, or elp3Δ with plasmids for wild type Elp3 or elp3 mutants
The target of one test is T1, Elp3-TAP (S. cerevisiae) (UniProt Q02908).
T1 sequence: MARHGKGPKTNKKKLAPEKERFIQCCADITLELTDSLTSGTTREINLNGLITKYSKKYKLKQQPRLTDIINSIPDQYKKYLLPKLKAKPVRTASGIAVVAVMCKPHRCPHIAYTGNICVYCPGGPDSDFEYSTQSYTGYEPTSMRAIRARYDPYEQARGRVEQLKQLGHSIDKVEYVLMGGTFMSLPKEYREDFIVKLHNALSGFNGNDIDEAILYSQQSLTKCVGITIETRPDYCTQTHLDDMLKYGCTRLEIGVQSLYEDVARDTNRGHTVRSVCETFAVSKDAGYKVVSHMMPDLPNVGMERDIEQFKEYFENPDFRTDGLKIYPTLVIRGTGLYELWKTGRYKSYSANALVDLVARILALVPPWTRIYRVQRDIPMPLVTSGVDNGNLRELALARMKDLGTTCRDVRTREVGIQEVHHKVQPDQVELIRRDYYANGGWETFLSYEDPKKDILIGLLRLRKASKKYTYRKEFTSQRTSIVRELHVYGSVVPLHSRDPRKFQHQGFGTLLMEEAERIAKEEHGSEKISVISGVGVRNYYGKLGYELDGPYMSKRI

A further test deals with T2, Elp5-TAP (S. cerevisiae) (UniProt P38874).
T2 sequence: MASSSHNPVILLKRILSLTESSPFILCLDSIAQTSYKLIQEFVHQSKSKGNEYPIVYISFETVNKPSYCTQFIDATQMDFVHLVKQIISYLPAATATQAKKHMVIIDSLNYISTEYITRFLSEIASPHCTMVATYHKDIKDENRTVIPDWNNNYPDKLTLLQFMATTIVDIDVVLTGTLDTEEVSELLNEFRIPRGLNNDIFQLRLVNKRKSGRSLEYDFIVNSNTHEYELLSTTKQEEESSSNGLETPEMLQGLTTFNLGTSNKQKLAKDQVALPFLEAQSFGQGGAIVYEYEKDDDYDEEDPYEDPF

The target in a further test is T3, Elp2-TAP (S. cerevisiae) (UniProt P42935).
T3 sequence: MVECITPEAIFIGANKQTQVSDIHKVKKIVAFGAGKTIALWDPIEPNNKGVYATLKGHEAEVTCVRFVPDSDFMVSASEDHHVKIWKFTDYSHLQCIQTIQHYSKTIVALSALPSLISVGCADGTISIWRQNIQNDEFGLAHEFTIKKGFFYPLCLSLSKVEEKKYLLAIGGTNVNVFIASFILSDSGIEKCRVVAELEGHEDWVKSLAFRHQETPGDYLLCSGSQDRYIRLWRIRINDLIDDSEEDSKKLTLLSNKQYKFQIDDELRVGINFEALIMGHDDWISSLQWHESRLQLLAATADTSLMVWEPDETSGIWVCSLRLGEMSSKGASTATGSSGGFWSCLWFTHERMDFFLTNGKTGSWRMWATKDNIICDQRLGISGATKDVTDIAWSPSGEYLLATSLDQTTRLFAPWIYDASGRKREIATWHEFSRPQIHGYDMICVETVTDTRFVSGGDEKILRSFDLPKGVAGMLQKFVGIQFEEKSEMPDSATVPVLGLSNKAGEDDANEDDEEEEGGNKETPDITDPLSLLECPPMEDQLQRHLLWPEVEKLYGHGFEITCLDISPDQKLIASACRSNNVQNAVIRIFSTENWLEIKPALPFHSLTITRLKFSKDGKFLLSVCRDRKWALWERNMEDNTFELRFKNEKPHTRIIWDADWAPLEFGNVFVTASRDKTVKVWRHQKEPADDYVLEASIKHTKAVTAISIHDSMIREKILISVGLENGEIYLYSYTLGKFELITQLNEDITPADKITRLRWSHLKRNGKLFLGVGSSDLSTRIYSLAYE

B1: Elp1 (protein, UniProt Q06706 1-1349)
chain: MVEHDKSGSKRQELRSNMRNLITLNKGKFKPTASTAEGDEDDLSFTLLDSVFDTLSDSITCVLGSTDIGAIEVQQFMKDGSRNVLASFNIQTFDDKLLSFVHFADINQLVFVFEQGDIITATYDPVSLDPAETLIEIMGTIDNGIAAAQWSYDEETLAMVTKDRNVVVLSKLFEPISEYHLEVDDLKISKHVTVGWGKKETQFRGKGARAMEREALASLKASGLVGNQLRDPTMPYMVDTGDVTALDSHEITISWRGDCDYFAVSSVEEVPDEDDETKSIKRRAFRVFSREGQLDSASEPVTGMEHQLSWKPQGSLIASIQRKTDLGEEDSVDVIFFERNGLRHGEFDTRLPLDEKVESVCWNSNSEALAVVLANRIQLWTSKNYHWYLKQELYASDISYVKWHPEKDFTLMFSDAGFINIVDFAYKMAQGPTLEPFDNGTSLVVDGRTVNITPLALANVPPPMYYRDFETPGNVLDVACSFSNEIYAAINKDVLIFAAVPSIEEMKKGKHPSIVCEFPKSEFTSEVDSLRQVAFINDSIVGVLLDTDNLSRIALLDIQDITQPTLITIVEVYDKIVLLRSDFDYNHLVYETRDGTVCQLDAEGQLMEITKFPQLVRDFRVKRVHNTSAEDDDNWSAESSELVAFGITNNGKLFANQVLLASAVTSLEITDSFLLFTTAQHNLQFVHLNSTDFKPLPLVEEGVEDERVRAIERGSILVSVIPSKSSVVLQATRGNLETIYPRIMVLAEVRKNIMAKRYKEAFIVCRTHRINLDILHDYAPELFIENLEVFINQIGRVDYLNLFISCLSEDDVTKTKYKETLYSGISKSFGMEPAPLTEMQIYMKKKMFDPKTSKVNKICDAVLNVLLSNPEYKKKYLQTIITAYASQNPQNLSAALKLISELENSEEKDSCVTYLCFLQDVNVVYKSALSLYDVSLALLVAQKSQMDPREYLPFLQELQDNEPLRRKFLIDDYLGNYEKALEHLSEIDKDGNVSEEVIDYVESHDLYKHGLALYRYDSEKQNVIYNIYAKHLSSNQMYTDAAVAYEMLGKLKEAMGAYQSAKRWREAMSIAVQKFPEEVESVAEELISSLTFEHRYVDAADIQLEYLDNVKEAVALYCKAYRYDIASLVAIKAKKDELLEEVVDPGLGEGFGIIAELLADCKGQINSQLRRLRELRAKKEENPYAFYGQETEQADDVSVAPSETSTQESFFTRYTGKTGGTAKTGASRRTAKNKRREERKRARGKKGTIYEEEYLVQSVGRLIERLNQTKPDAVRVVEGLCRRNMREQAHQIQKNFVEVLDLLKANVKEIYSISEKDRERVNENGEVYYIPEIPVPEIHDFPKSHIVDF
Turning to B1, the binding result with Elp3-TAP (S. cerevisiae) and with Elp5-TAP (S. cerevisiae) was “binds” each time.

B2: elp3-5 (protein, UniProt Q02908 1-557)
chain: MARHGKGPKTNKKKLAPEKERFIQCCADITLELTDSLTSGTTREINLNGLITKYSKKYKLKQQPRLTDIINSIPDQYKKYLLPKLKAKPVRTASGIAVVAVMCKPHRCPHIAYTGNICVYCPGGPDSDFEYSTQSYTGYEPTSMRAIRARYDPYEQARGRVEQLKQLGHSIDKVEYVLMGGTFMSLPKEYREDFIVKLHNALSGFNGNDIDEAILYSQQSLTKCVGITIETRPDYCTQTHLDDMLKYGCTRLEIGVQSLYEDVARDTNRGHTVRSVCETFAVSKDAGYKVVSHMMPDLPNVGMERDIEQFKEYFENPDFRTDGLKIYPTLVIRGTGLYELWKTGRYKSYSANALVDLVARILALVPPWTRIYRVQRDIPMPLVTSGVDNGNLRELALARMKDLGTTCRDVRTREVGIQEVHHKVQPDQVELIRRDYYANGGWETFLSYEDPKKDILIGLLRLRKASKKYTYRKEFTSQRTSIVRELHVYGSVVPLHSRDPRKFQHQGFGTLLMEEAERIAKEEHGSEKISVISGVGVRNAAGKLGYELDGPYMSKRI
Turning to B2, the binding entry in the test with Elp2-TAP (S. cerevisiae) and with Elp5-TAP (S. cerevisiae) was “binds” each time.

B3: wild type Elp3 expressed from a plasmid (protein, UniProt Q02908 1-557)
chain: MARHGKGPKTNKKKLAPEKERFIQCCADITLELTDSLTSGTTREINLNGLITKYSKKYKLKQQPRLTDIINSIPDQYKKYLLPKLKAKPVRTASGIAVVAVMCKPHRCPHIAYTGNICVYCPGGPDSDFEYSTQSYTGYEPTSMRAIRARYDPYEQARGRVEQLKQLGHSIDKVEYVLMGGTFMSLPKEYREDFIVKLHNALSGFNGNDIDEAILYSQQSLTKCVGITIETRPDYCTQTHLDDMLKYGCTRLEIGVQSLYEDVARDTNRGHTVRSVCETFAVSKDAGYKVVSHMMPDLPNVGMERDIEQFKEYFENPDFRTDGLKIYPTLVIRGTGLYELWKTGRYKSYSANALVDLVARILALVPPWTRIYRVQRDIPMPLVTSGVDNGNLRELALARMKDLGTTCRDVRTREVGIQEVHHKVQPDQVELIRRDYYANGGWETFLSYEDPKKDILIGLLRLRKASKKYTYRKEFTSQRTSIVRELHVYGSVVPLHSRDPRKFQHQGFGTLLMEEAERIAKEEHGSEKISVISGVGVRNYYGKLGYELDGPYMSKRI
With B3, the binding result with Elp2-TAP (S. cerevisiae) and with Elp5-TAP (S. cerevisiae) was “binds” throughout.

B4: elp3-4 (protein, UniProt Q02908 1-557)
chain: MARHGKGPKTNKKKLAPEKERFIQCCADITLELTDSLTSGTTREINLNGLITKYSKKYKLKQQPRLTDIINSIPDQYKKYLLPKLKAKPVRTASGIAVVAVMCKPHRCPHIAYTGNICVYCPGGPDSDFEYSTQSYTGYEPTSMRAIRARYDPYEQARGRVEQLKQLRHSIDKVEYVLMGGTFMSLPKEYREDFIVKLHNALSGFNGNDIDEAILYSQQSLTKCVGITIETRPDYCTQTHLDDMLKYGCTRLEIGVQSLYEDVARDTNRGHTVRSVCETFAVSKDAGYKVVSHMMPDLPNVGMERDIEQFKEYFENPDFRTDGLKIYPTLVIRGTGLYELWKTGRYKSYSANALVDLVARILALVPPWTRIYRVQRDIPMPLVTSGVDNGNLRELALARMKDLGTTCRDVRTREVGIQEVHHKVQPDQVELIRRDYYANGGWETFLSYEDPKKDILIGLLRLRKASKKYTYRKEFTSQRTSIVRELHVYGSVVPLHSRDPRKFQHQGFGTLLMEEAERIAKEEHGSEKISVISGVGVRNYYGKLGYELDGPYMSKRI
B4: the binding entry with Elp2-TAP (S. cerevisiae) is on record as “binds”.

B5: Elp2 (protein, UniProt P42935 1-788)
chain: MVECITPEAIFIGANKQTQVSDIHKVKKIVAFGAGKTIALWDPIEPNNKGVYATLKGHEAEVTCVRFVPDSDFMVSASEDHHVKIWKFTDYSHLQCIQTIQHYSKTIVALSALPSLISVGCADGTISIWRQNIQNDEFGLAHEFTIKKGFFYPLCLSLSKVEEKKYLLAIGGTNVNVFIASFILSDSGIEKCRVVAELEGHEDWVKSLAFRHQETPGDYLLCSGSQDRYIRLWRIRINDLIDDSEEDSKKLTLLSNKQYKFQIDDELRVGINFEALIMGHDDWISSLQWHESRLQLLAATADTSLMVWEPDETSGIWVCSLRLGEMSSKGASTATGSSGGFWSCLWFTHERMDFFLTNGKTGSWRMWATKDNIICDQRLGISGATKDVTDIAWSPSGEYLLATSLDQTTRLFAPWIYDASGRKREIATWHEFSRPQIHGYDMICVETVTDTRFVSGGDEKILRSFDLPKGVAGMLQKFVGIQFEEKSEMPDSATVPVLGLSNKAGEDDANEDDEEEEGGNKETPDITDPLSLLECPPMEDQLQRHLLWPEVEKLYGHGFEITCLDISPDQKLIASACRSNNVQNAVIRIFSTENWLEIKPALPFHSLTITRLKFSKDGKFLLSVCRDRKWALWERNMEDNTFELRFKNEKPHTRIIWDADWAPLEFGNVFVTASRDKTVKVWRHQKEPADDYVLEASIKHTKAVTAISIHDSMIREKILISVGLENGEIYLYSYTLGKFELITQLNEDITPADKITRLRWSHLKRNGKLFLGVGSSDLSTRIYSLAYE
Consider B5, for which the binding entry with Elp3-TAP (S. cerevisiae) is given as “binds”.

The record behind these values is publication PMC2757915, “The Elongator Complex Interacts with PCNA and Modulates Transcriptional Silencing and Sensitivity to DNA Damage Agents” (PLoS Genetics, 2009).
